# According to the BET-seq Pho4 binding data (Le et al. 2018):
# Some of the results follow. The energies were worked out here from pooled read counts, against the library average; single values are noisy.
# Molecular target: T1, Pho4 (S. cerevisiae) (UniProt P07270)
# T1 sequence: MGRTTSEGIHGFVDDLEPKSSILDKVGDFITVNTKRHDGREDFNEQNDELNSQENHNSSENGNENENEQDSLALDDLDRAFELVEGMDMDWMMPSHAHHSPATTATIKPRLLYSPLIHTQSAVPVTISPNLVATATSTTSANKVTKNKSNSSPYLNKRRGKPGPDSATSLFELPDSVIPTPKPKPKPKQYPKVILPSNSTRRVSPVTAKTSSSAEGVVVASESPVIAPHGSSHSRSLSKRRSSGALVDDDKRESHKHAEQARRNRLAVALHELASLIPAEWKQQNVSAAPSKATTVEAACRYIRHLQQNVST
# Test: relative binding free energy (BET-seq); higher = weaker binding
# Details: reference: library average
row,Sequence,relative binding free energy
1,ATGGGCACGTGAGATA,-0.07 kcal/mol
2,TTGGGCACGTGCATTG,-0.12 kcal/mol
3,GGGGTCACGTGGCTTT,0.13 kcal/mol
4,CAGTTCACGTGGCGGG,0.15 kcal/mol
5,ACGGGCACGTGACGGG,-0.18 kcal/mol
6,TTGTTCACGTGAAAGT,0.24 kcal/mol
7,GGTGGCACGTGTGTTG,-0.02 kcal/mol
8,TCTTGCACGTGGGGAA,-0.08 kcal/mol
9,ATTGTCACGTGATACT,0.13 kcal/mol
10,TGGACCACGTGTATTT,-0.01 kcal/mol
11,GGTAGCACGTGTTGTG,0.03 kcal/mol
12,TTTAGCACGTGTGATA,0.01 kcal/mol
13,CGTGTCACGTGTATGC,-0.02 kcal/mol
14,CGGTGCACGTGGTTTA,-0.09 kcal/mol
15,GTGCGCACGTGTGGGG,-0.09 kcal/mol
16,TGGAACACGTGAAGTA,0.31 kcal/mol
17,TTATGCACGTGTAGAG,0 kcal/mol
18,AGTAACACGTGACGGG,0.11 kcal/mol
19,AATATCACGTGGTTTA,0.03 kcal/mol
20,TCTATCACGTGCGGTA,0.19 kcal/mol
21,ATTGGCACGTGTTTGG,-0.02 kcal/mol
22,GGCGACACGTGGCTGT,0.05 kcal/mol
23,GTGCTCACGTGTGGGA,0.15 kcal/mol
24,GGGTCCACGTGAGTTA,0.17 kcal/mol
25,GAAGTCACGTGTTGCG,0.22 kcal/mol

row,Sequence,relative binding free energy
1,ATTGACACGTGGGCGA,-0.15 kcal/mol
2,GGTAGCACGTGAGCGA,0.31 kcal/mol
3,ATGTTCACGTGCCTGG,0.19 kcal/mol
4,GATGTCACGTGTCTTG,0.18 kcal/mol
5,GAGGGCACGTGGTCAG,-0.2 kcal/mol
6,TCAATCACGTGGGGGG,0.06 kcal/mol
7,CCGGGCACGTGGGTGG,-0.33 kcal/mol
8,CTTGGCACGTGAGGAG,0.16 kcal/mol
9,ATGGGCACGTGTATCT,-0.09 kcal/mol
10,TGTAACACGTGAAAGT,0.29 kcal/mol
11,CCGGGCACGTGTGTTA,-0.1 kcal/mol
12,GTTAGCACGTGTTAGT,-0.04 kcal/mol
13,TTTAGCACGTGGGGCG,-0.23 kcal/mol
14,TGAGACACGTGTTGGA,-0.05 kcal/mol
15,GTAGGCACGTGTGACG,-0.04 kcal/mol
16,AGATTCACGTGTGTAA,0.27 kcal/mol
17,ATGATCACGTGGGACT,0.07 kcal/mol
18,GGTATCACGTGTTGGG,0.15 kcal/mol
19,TAATGCACGTGAAGAG,0.34 kcal/mol
20,AGTGACACGTGGTCAG,-0.02 kcal/mol
21,TGTGCCACGTGGGGAC,-0.09 kcal/mol
22,TCGATCACGTGTTTTA,0.07 kcal/mol
23,CAGTGCACGTGGAGGC,0.03 kcal/mol
24,GTTAGCACGTGCGATT,0.02 kcal/mol
25,AATGCCACGTGGAGGG,-0.12 kcal/mol

row,Sequence,relative binding free energy
1,ACTTGCACGTGTGTTA,0.08 kcal/mol
2,ACAAGCACGTGGTGGT,-0.06 kcal/mol
3,CAGTACACGTGGTTGG,-0.06 kcal/mol
4,ATACGCACGTGTATTG,-0.1 kcal/mol
5,TTTGACACGTGGTTAG,-0.04 kcal/mol
6,GCAAGCACGTGGGGAG,-0.16 kcal/mol
7,TTAGGCACGTGACATT,-0.03 kcal/mol
8,GTGCGCACGTGAGAGG,0.3 kcal/mol
9,GGACTCACGTGATGTG,0.21 kcal/mol
10,AGCTGCACGTGGCTGG,-0.01 kcal/mol
11,GTTGTCACGTGAGTAT,0.27 kcal/mol
12,TGAGACACGTGAGGGA,0.26 kcal/mol
13,TATTTCACGTGTCGGG,0.34 kcal/mol
14,GTTAGCACGTGGTATT,-0.02 kcal/mol
15,TTTGGCACGTGCCGTT,-0.21 kcal/mol
16,GGGTTCACGTGTGACA,0.4 kcal/mol
17,ATTGACACGTGAAATG,0.23 kcal/mol
18,TAGGCCACGTGGTATT,-0.13 kcal/mol
19,TTACTCACGTGGTGTT,0.1 kcal/mol
20,CAGTACACGTGGGTTT,-0.11 kcal/mol
21,CAGGACACGTGGGTTG,-0.08 kcal/mol
22,ATGGCCACGTGTAGGG,-0.01 kcal/mol
23,TTCCGCACGTGGGGTT,-0.12 kcal/mol
24,TTTTACACGTGAAGGC,0.28 kcal/mol
25,TTAATCACGTGGGTTC,-0.09 kcal/mol

row,Sequence,relative binding free energy
1,ATAGGCACGTGTATCG,-0.07 kcal/mol
2,AATTGCACGTGAGTAT,0.16 kcal/mol
3,GTGGTCACGTGTGTGT,0.1 kcal/mol
4,TTAACCACGTGTAGGG,-0.11 kcal/mol
5,AGAGGCACGTGCGGTA,-0.33 kcal/mol
6,ACGGTCACGTGGAGTA,0.04 kcal/mol
7,TTAGGCACGTGGTCCT,-0.21 kcal/mol
8,CGGTTCACGTGGGATA,0.16 kcal/mol
9,GGCGGCACGTGGTAGG,-0.15 kcal/mol
10,GGTTTCACGTGGATTT,0.32 kcal/mol
11,CAGTGCACGTGGTGCG,-0.12 kcal/mol
12,GGATACACGTGGTAGA,0.2 kcal/mol
13,GTGTGCACGTGGCGAT,-0.09 kcal/mol
14,TAGAGCACGTGGGCGG,-0.21 kcal/mol
15,GTTCACACGTGGTTGT,0.07 kcal/mol
16,ATATGCACGTGAGCTG,0.05 kcal/mol
17,TGTACCACGTGGGCGG,-0.24 kcal/mol
18,TGGTGCACGTGGACTT,-0.15 kcal/mol
19,TGTTGCACGTGAGGCC,0.17 kcal/mol
20,TACGGCACGTGTGGAG,0 kcal/mol
21,GAGTACACGTGTGAGG,0.03 kcal/mol
22,AGTAACACGTGATATT,0.16 kcal/mol
23,GGTAACACGTGAGTTT,0.41 kcal/mol
24,TGTATCACGTGTGGCG,0.11 kcal/mol
25,ATTCGCACGTGTAGGC,0.09 kcal/mol

row,Sequence,relative binding free energy
1,ATTATCACGTGAGTTG,0.32 kcal/mol
2,TCTGGCACGTGGACTG,-0.04 kcal/mol
3,GACTGCACGTGGTGTA,-0.01 kcal/mol
4,GGTGTCACGTGCTTTA,0.11 kcal/mol
5,GGATTCACGTGTAATA,0.33 kcal/mol
6,AGGTACACGTGTGGAA,0.22 kcal/mol
7,GCTTTCACGTGTGTGT,0.26 kcal/mol
8,TATACCACGTGGTGGT,-0.1 kcal/mol
9,GGGTTCACGTGAGTTG,0.51 kcal/mol
10,GGGTGCACGTGTTCAA,-0.02 kcal/mol
11,TGGGGCACGTGAGTAA,0.22 kcal/mol
12,GGTTCCACGTGTGTGT,0.14 kcal/mol
13,GGGTACACGTGTTCAA,0.18 kcal/mol
14,TGGTACACGTGTTAGG,0.16 kcal/mol
15,CTGTACACGTGGATGG,0.06 kcal/mol
16,TGTGGCACGTGAACTG,0.14 kcal/mol
17,GTGGTCACGTGAGTAT,0.45 kcal/mol
18,TTCAGCACGTGGGAGG,-0.14 kcal/mol
19,GGGATCACGTGGGCGG,0.12 kcal/mol
20,TTTATCACGTGCATAT,-0.02 kcal/mol
21,GTTTGCACGTGTATGC,0.1 kcal/mol
22,ATATGCACGTGTTGTT,-0.13 kcal/mol
23,CATTGCACGTGATGGG,0 kcal/mol
24,CGTTGCACGTGGCGCG,-0.03 kcal/mol
25,ACATTCACGTGGAGGG,0.27 kcal/mol

row,Sequence,relative binding free energy
1,AGAAACACGTGGCGTG,-0.02 kcal/mol
2,CTGTTCACGTGGTGAT,0.21 kcal/mol
3,TTTATCACGTGCTTTT,0.17 kcal/mol
4,GTTCTCACGTGTGTTC,0.42 kcal/mol
5,GGTCGCACGTGGGGCG,-0.17 kcal/mol
6,TATGTCACGTGTCATA,0.04 kcal/mol
7,TATGGCACGTGGTGGG,-0.11 kcal/mol
8,AGTATCACGTGGTTGT,0.02 kcal/mol
9,CTTGCCACGTGGGGGG,-0.41 kcal/mol
10,ATAGGCACGTGTTATG,-0.12 kcal/mol
11,CTAGTCACGTGCGGGT,-0.06 kcal/mol
12,GTTCTCACGTGTCGTG,0.11 kcal/mol
13,AGGAGCACGTGTGTCG,-0.14 kcal/mol
14,TATATCACGTGGGAAG,0.22 kcal/mol
15,TGGTTCACGTGATCTT,0.45 kcal/mol
16,TGACTCACGTGAGTTG,0.35 kcal/mol
17,AGGTTCACGTGTAAGC,0.42 kcal/mol
18,CTTGGCACGTGAGGGA,0.06 kcal/mol
19,GCAAGCACGTGGTTTG,0.06 kcal/mol
20,TTAGGCACGTGCGTAA,-0.18 kcal/mol
21,TGAGGCACGTGTCGGC,-0.11 kcal/mol
